This experiment has as its target T1, CD19 antigen (UniProt P15391 20-556, limits assumed).
T1 construct: whole, on cells; the cell lines are human
T1 sequence (looked up): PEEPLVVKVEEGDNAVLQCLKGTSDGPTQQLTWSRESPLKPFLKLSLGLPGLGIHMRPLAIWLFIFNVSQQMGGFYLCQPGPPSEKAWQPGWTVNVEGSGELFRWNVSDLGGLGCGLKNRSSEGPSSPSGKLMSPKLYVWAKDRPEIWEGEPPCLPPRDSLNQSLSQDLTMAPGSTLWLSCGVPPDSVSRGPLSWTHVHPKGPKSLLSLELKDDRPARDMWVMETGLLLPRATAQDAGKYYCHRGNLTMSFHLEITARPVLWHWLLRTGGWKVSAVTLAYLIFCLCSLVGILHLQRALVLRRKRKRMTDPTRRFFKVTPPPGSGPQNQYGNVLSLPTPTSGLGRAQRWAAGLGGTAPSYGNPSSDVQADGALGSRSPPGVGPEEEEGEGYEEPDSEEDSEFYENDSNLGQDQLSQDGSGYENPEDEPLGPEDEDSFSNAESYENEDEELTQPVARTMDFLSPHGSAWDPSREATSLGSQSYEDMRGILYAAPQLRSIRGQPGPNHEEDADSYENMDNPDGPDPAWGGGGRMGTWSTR
Description: flow cytometry on BV173 cells, detected with FITC-labeled Protein L. As to the method: 1. T cell and BV173 cell experimental group: 5 μg of multi-function proteins TiTE-15, 16 were added to BV173 cells and 3×10\hat{ }5 T cells derived from mononuclear cell-rich white membrane layer of normal human peripheral blood by density gradient centrifugation, and stimulated by OKT3 (50 ng/mL) and IL2 (300 IU/mL) for 14 days, and incubated on ice for 30 min. The supernatant was removed by centrifugation and the cells were re-suspended in 200 μL of PBS. 2 μL of FITC-Labeled recombinant Protein L (ACRO Biosystem, RPL-PF141) was added and incubated on ice for 30 min. The supernatant was removed by centrifugation, washed twice in 500 μL PBS, and re-suspended in 200 μL of PBS.
T cell and BV173 cell negative control group: 3*10E5 T cells respectively (PBMC stimulated with 50 ng/mL OKT3, 300 IU/mL IL2) were mixed with BV173 cells (ATCC) first, and 2 μL APC Mouse anti-Human CD279 (BD, Cat. No. 558694) was added to the cells and incubated on ice for 30 min. The supernatant was removed by centrifugation, and the cells were re-suspended in 200 μL of PBS as a negative control.

From patent US20220064289A1 (SHENZHEN BEIKE BIOTECHNOLOGY, published 2022) come the findings set out here.

B1: multifunctional protein TiTE-16 (other)
chain 1: DIQMTQTTSSLSASLGDRVTISCRASQDISKYLNWYQQKPDGTVKLLIYHTSRLHSGVPSRFSGSGSGTDYSLTISNLEQEDIATYFCQQGNTLPYTFGGGTKLEITGSTSGSGKPGSGEGSTKGEVKLQESGPGLVAPSQSLSVTCTVSGVSLPDYGVSWIRQPPRKGLEWLGVIWGSETTYYNSALKSRLTIIKDNSKSQVFLKMNSLQTDDTAIYYCAKHYYYGGSYAMDYWGQGTSVTVSSGGGGSITCPPPMSVEHADIWVKSYSLYSRERYICNSGFKRKAGTSSLTECVLNKATNVAHWTTPSLKCIRDPALVHQSGGSGGGGSGGGSGGGGSLQDIQMTQSPSSLSASVGDRVTITCRASQDIRNYLNWYQQKPGKAPKLLIYYTSRLESGVPSRFSGSGSGTDYTLTISSLQPEDFATYYCQQGNTLPWTFGQGTKVEIKGGGGSGGGGSGGGGSEVQLVESGGGLVQPGGSLRLSCAASGYSFTGYTMNWVRQAPGKGLEWVALINPYKGVSTYNQKFKDRFTISVDKSKNTAYLQMNSLRAEDTAVYYCARSGYYGDSDWYFDVWGQGTLVTV
chain 2: [about 120 residues omitted here]
notes: Heterodimer of the main chain and IL15 alone
For B1, the binding result is given as “binds”.
